Results reported in PMC4336329 (PLoS ONE, 2015).
In all, about 310,000 compounds went through this assay and about 2,200 (0.71%) showed an effect of 50% or more. Effects have a minus sign here. The list shows a part of the results.

Biological target: human ether-à-go-go-related gene (hERG) potassium channel (human, UniProt Q12809)
Experiment: primary screen, population patch clamp on CHO cells stably expressing hERG

human ether-à-go-go-related gene (hERG) potassium channel, sequence (Q12809 whole entry, looked up): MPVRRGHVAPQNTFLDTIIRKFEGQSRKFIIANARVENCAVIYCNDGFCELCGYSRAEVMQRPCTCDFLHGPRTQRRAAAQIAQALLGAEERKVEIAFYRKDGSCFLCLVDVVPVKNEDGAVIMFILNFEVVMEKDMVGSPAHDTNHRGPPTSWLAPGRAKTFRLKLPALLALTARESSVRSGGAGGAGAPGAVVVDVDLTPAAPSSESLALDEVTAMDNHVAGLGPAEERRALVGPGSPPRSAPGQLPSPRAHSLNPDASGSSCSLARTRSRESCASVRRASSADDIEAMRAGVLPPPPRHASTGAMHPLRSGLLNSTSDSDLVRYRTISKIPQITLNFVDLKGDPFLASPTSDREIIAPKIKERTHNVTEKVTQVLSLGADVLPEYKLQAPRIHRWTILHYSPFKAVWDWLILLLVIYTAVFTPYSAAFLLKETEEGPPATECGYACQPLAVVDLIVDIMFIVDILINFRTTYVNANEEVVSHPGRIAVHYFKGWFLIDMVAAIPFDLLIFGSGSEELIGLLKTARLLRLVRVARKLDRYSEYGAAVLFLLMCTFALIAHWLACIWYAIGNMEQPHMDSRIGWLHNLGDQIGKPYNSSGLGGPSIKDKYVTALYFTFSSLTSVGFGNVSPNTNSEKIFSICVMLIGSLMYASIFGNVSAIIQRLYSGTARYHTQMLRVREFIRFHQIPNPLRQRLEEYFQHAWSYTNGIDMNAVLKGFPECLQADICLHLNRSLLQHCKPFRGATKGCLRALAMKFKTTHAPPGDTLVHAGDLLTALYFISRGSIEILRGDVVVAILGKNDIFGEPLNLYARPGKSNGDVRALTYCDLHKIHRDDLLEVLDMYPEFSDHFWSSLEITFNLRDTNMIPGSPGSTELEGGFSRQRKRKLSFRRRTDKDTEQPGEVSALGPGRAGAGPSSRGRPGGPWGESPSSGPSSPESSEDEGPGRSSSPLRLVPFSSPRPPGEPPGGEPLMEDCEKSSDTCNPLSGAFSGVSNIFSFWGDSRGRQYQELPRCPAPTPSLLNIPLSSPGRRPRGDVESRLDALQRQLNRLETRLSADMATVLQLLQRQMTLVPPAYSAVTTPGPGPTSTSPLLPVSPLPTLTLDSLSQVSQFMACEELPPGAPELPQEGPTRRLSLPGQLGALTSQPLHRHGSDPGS

Compared with `O=c1[nH]oc2cc(Cl)ccc12`, `Cc1nc2ccccc2[nH]c1=O` is higher in “hERG current change (%, negative = inhibition) at 1uM” value: 8.58% for the first, 15.1% for the second.

Compared with `CO/N=C/NC(=O)NOCc1ncc(C(F)(F)F)cc1Cl`, `O=C(NCc1ccc(OC(F)(F)F)cc1)C1CC(c2ccc(C(F)(F)F)cc2)=NO1` (centres unmarked) is lower in “hERG current change (%, negative = inhibition) at 1uM” value: 10.8% for the first, 9.31% for the second.

First: CN(C)S(=O)(=O)c1cccc(NC(=O)c2ccc3c(c2)OCCO3)c1
Second: N#Cc1ccc(OCC(=O)Nc2cccc(S(=O)(=O)NC3=NCCCCC3)c2)cc1
The “hERG current change (%, negative = inhibition) at 1uM” value of the first is lower: -5.59% for the first, 9.67% for the second.

Compared with `CCOc1ccc(-c2cc(C(=O)N/N=C(\C)c3cccnc3)c3ccccc3n2)cc1`, `Cc1nccc(-c2cccc(N/N=C(\C#N)C(=O)c3ccccc3)c2)n1` is lower in “hERG current change (%, negative = inhibition) at 1uM” value: 10.9% for the first, 7.67% for the second.

First: COc1ccc([C@@H]2C(C#N)=C(N)S[C@@H](c3ccccc3)[C@@H]2[N+](=O)[O-])cc1
Second: COc1ccc(SCCN2CC[C@@H](NC(=O)OCc3ccccc3)CCC2=O)cc1
The “hERG current change (%, negative = inhibition) at 1uM” value of the first is lower: -2.75% for the first, 3.41% for the second.

Going from `COCC(=O)N1CCC(Oc2ccc(C(=O)N3CCCCCC3)cc2)CC1` to `COc1ccc(N2CCN(CCCNC(=O)CN3C(=O)COc4ccccc43)CC2)cc1`, the “hERG current change (%, negative = inhibition) at 1uM” value falls from 10% to 4.56%.

First: CC(C)c1ccc(NC(=O)C2CCC(CNC(=O)[C@@H]3Cc4ccccc4CN3)CC2)cc1 (some centres unmarked)
Second: COc1ccc(NC(=O)Nc2ccc3c(c2)CCC3)cc1OC
The “hERG current change (%, negative = inhibition) at 1uM” value of the first is lower: 10.3% for the first, 17.4% for the second.

First: O=C(CN(CCc1ccccc1)C(=O)c1csnn1)NC1CCCC1
Second: CCOC(=O)C(Cc1ccccc1)C(=O)c1ccco1 (centres unmarked)
The “hERG current change (%, negative = inhibition) at 1uM” value of the first is lower: 0.269% for the first, 14.6% for the second.

Going from `C/C(=N\O)C(=O)NCc1ccncc1` to `COc1ccc(CNC(=O)C2CC(c3cccc(OC)c3)=NO2)cc1` (centres unmarked), the “hERG current change (%, negative = inhibition) at 1uM” value falls from 12.8% to 11.6%.

Compared with `COc1ccc(C(=O)Nc2nnc(-c3ccccc3)o2)cc1OC`, `O=C(Nc1nc2ccccc2[nH]1)c1ccc(Cl)c([N+](=O)[O-])c1` is lower in “hERG current change (%, negative = inhibition) at 1uM” value: 9.86% for the first, 7.03% for the second.

First: COc1ccccc1/C=N/NC(=O)c1ccc(N(C)S(=O)(=O)c2ccccc2)cc1
Second: C=CCN1C(=O)C(Cc2ccccc2)SC1=Nc1ccc(C(=O)O)cc1 (centres unmarked)
The “hERG current change (%, negative = inhibition) at 1uM” value of the first is lower: 8.23% for the first, 15.9% for the second.

First: O=C(CCSc1nnc(-c2ccccc2)o1)N1CCOCC1
Second: N#Cc1ccccc1NC(=O)CN1CCOCC1
The “hERG current change (%, negative = inhibition) at 1uM” value of the first is lower: 10.1% for the first, 11.3% for the second.

Going from `CC(C)NC(=O)c1cc(=O)n(C)c(=O)n1C` to `Clc1ccc(OCCSc2ncccn2)c(Br)c1`, the “hERG current change (%, negative = inhibition) at 1uM” value rises from 12.3% to 17.1%.
